# Data from PubChem BioAssay AID2546 (National Center for Advancing Translational Sciences (NCATS), 2010).
# Where “and” joins values, the source holds several entries; their conditions need not be identical. Equal values may be shown once. The campaign covered roughly 310,000 compounds. About 11,000 (3.5%) were called active. The shares of active, inactive and inconclusive entries below differ from those in the screen. Calls follow the shape of the dose curve; as a rule, active = well fitted inhibition curve with a large enough effect; inconclusive = small, poorly fitted or top-dose-only effect, or effect the other way; inactive = flat fitted curve, though single readings scatter. Potencies of inconclusive entries are left out as doubtful fits.
# Test: VP16 counterscreen qHTS for inhibitors of ROR gamma transcriptional activity;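 also: Gal4-VP16 expression switched on by copper sulfate through the metallothionein promoter; nearly all actives have a fitted effect of over 50% in size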
# Conditions: Drosophila S2 Gal4-VP16 UAS-luciferase, luminescence, 20 h; activity, negative = inhibition: at 53.6 µM (top of the series)
# % is scaled to controls: 0 for no effect and ±100 for the full control effect; potency is read from the fitted curve at half-maximal effect; tags tell the direction and shape of the fitted curve.
SMILES,Potency,"activity, negative = inhibition"
Cc1cnc(NC(=O)C2CCC(C(C)(C)C)CC2)s1 (stereo unspecified),"inconclusive [inhibitor, single point]",
COc1ccc(CNc2nc(-c3ccc(N(C)C)cc3)nc3ccccc23)c(OC)c1,active: 5.01 µM,
CC1CCC2C(=O)N3CCCC3C(=O)N2C1c1ccc(Br)cc1 (stereo unspecified),,inactive: 1.49% [at 10 µM] and inactive: 4.18% [at 10 µM]
C[C@@H]1C[C@@H]([C@@H](C)CC2CC(=O)NC(=O)C2)C(=O)[C@@H](C)C1,,inactive: -0.49%
Cc1ccc(NC(=O)c2cnn(-c3ccccc3)c2C)cc1,"inconclusive [inhibitor, single point]",
O=C(/C=C/c1cccs1)NC(=S)Nc1ccccc1,active: 8.91 µM,
N/C(=N\OC(=O)C1CCCCC1)c1ccncc1,"inconclusive [activator, partial curve]",
Cc1[nH]nc2c1C1(CCN(C(=O)OCc3ccccc3)CC1)C(C#N)=C(N)O2,"inconclusive [inhibitor, partial curve]",
Cc1ccc(-c2onc(C)c2C)cc1S(=O)(=O)N1CCOc2ccccc21,"inconclusive [inhibitor, single point]",
O=C(c1ccc(S(=O)(=O)NCc2ccco2)cc1)N1CCCC1,,inactive: -4.47%
C/C(CCC(C)C)=N\NC(=S)Nc1cc(S(=O)(=O)N2CCOCC2)ccc1N1CCOCC1,"inconclusive [inhibitor, single point]",
CN(C)CCOc1ccc(C(C)(C)c2ccccc2)cc1,,inactive: 4.84%
CC(C)CCC(O)(CCC(C)C)C(=O)NN1CCCCC1,"inconclusive [activator, single point]",
COc1cccc(CNC(=O)c2nnn(CC(=O)Nc3ccc(Br)cc3)c2N)c1,"inconclusive [inhibitor, partial curve]",
CC1=NN(C(N)=S)C(=O)C1N=Nc1cccc(C(=O)O)c1 (stereo unspecified),"inconclusive [inhibitor, single point]",
CCn1c(=O)c2cc(C(=O)NC(C)C)sc2c2ccccc21,,inactive: -1.87%
C=CCNC(=S)Nc1cc(C)ccn1,active: 3.98 µM,
Cc1ccc(C)c(-n2c3nc(=O)[nH]c(=O)c-3cc3cc([N+](=O)[O-])ccc32)c1,active: 11.2 µM,
Cc1sc2nc(CN(C(=O)c3cccs3)C3CCCC3)[nH]c(=O)c2c1C,"inconclusive [inhibitor, single point]",
Cc1cc(C)c2sc(NC(=O)c3ccc(N4C(=O)CCC4=O)cc3)nc2c1,"inconclusive [inhibitor, full curve, poor fit]",
CCCCNC(=S)NNC(=O)c1csc(C(C)C)c1,"inconclusive [inhibitor, single point]",
COc1ccc(Nc2ccnc(Nc3ccc(OC)cc3)n2)cc1,"inconclusive [inhibitor, single point]",
S=c1[nH]nc(-c2ccccc2)n1/N=C/C=C/c1ccco1,active: 3.16 µM,

SMILES,Potency,"activity, negative = inhibition"
O=C(CNC(=O)c1ccccc1F)N/N=C/c1cc(Br)ccc1OC(=O)/C=C/c1ccco1,active: 3.16 µM,
CCOC(=O)C1=C(c2ccccc2)NC(=O)NC1c1cc(Br)c(O)c(OC)c1 (stereo unspecified),"inconclusive [inhibitor, single point]",
O=C(Nc1nnc(CC(c2ccccc2)c2ccccc2)s1)c1ccco1,"inconclusive [inhibitor, single point]",
CCOC(=O)C1CCN(C(=O)Cn2ncc3c([nH]c4ccccc43)c2=O)CC1,,inactive: -12.5%
COc1cccc(NC(=S)NCc2ccc3c(c2)cc(C)n3C)c1,"inconclusive [inhibitor, single point]",
Nc1nnc(CC(=O)N/N=C/c2cccc(OCCOc3ccccc3)c2)s1,"inconclusive [inhibitor, partial curve]",
C=CCn1c(SCc2nc3scc(-c4ccccc4)c3c(=O)[nH]2)nnc1-c1ccccc1F,"inconclusive [inhibitor, single point]",
COc1ccc(-c2nc3cnc(N4CCNCC4)nc3n(CCC#N)c2=O)cc1,"inconclusive [inhibitor, single point]",
O=C(CSc1nc2ccccc2[nH]1)Nc1nc(-c2ccccc2)c(-c2ccccc2)o1,"inconclusive [inhibitor, single point]",
Cc1ccccc1C(=O)N1CCN(c2ccc(NC(=S)NC(=O)c3ccco3)cc2)CC1,"inconclusive [inhibitor, single point]",
COc1cc(SC)ccc1C(=O)Nc1ccc(OCC(=O)N2CCOCC2)cc1,active: 11.2 µM,
COc1ccc(N(CC(=O)N/N=C/c2ccc(N(C)C)cc2)S(=O)(=O)c2ccccc2)cc1,,inactive: -11.5%
COc1ccc(C(=O)Nc2c(-c3ccccc3)nc3ccccn23)c(OC)c1,,inactive: -1.45%
COc1ccc(Cc2nc3ccc(C(=O)N4CCN(C)C(C)C4)cc3o2)cc1OC (stereo unspecified),"inconclusive [inhibitor, single point]",
CCOc1ccccc1-c1nnc2n1N=C(c1ccc(OC)cc1)CS2,,inactive: -2.9%
NS(=O)(=O)c1ccc(NC(=S)Nc2ccn(Cc3cccc4ccccc34)n2)cc1,"inconclusive [inhibitor, single point]",
COc1ccc(NCC(=O)N/N=C/C=C\c2ccccc2)cc1,active: 12.6 µM,
COc1ccc(C(=O)Nc2ccc3c(c2)nc(CCNC(=O)c2ccco2)n3C)cc1,,inactive: -6.43%
O=[N+]([O-])c1ccc(S(=O)(=O)NCCS(=O)(=O)N2CCN(c3ccccc3)CC2)cc1,,inactive: -0.694%
COc1cc(NS(=O)(=O)c2ccc(NC(=S)NC(=O)c3sc4ccccc4c3Cl)cc2)ncn1,"inconclusive [inhibitor, single point]",
Clc1ccc(CN2C3=NCCCN3c3ccccc32)cc1,,inactive: -25.5%
COc1ccc(-c2csc(NC3OC(=O)c4c3ccc(OC)c4OC)n2)cc1OC (stereo unspecified),active: 7.94 µM,
CCN(CC)CCOC(=O)c1ccc(N/C=C(/C#N)c2nc(-c3ccc(OC)c(OC)c3)cs2)cc1,"inconclusive [inhibitor, single point]",
